The other results are listed elsewhere or left out.
Columns and labels:
Test in all cases: glycan array binding signal (z-score within array); higher = stronger binding
Conditions in all cases: glycan notation: IUPAC condensed, linker removed
[1] = target: Gal(b1-3)GlcNAc(b1-6)[Gal(b1-3)]GalNAc
How it was run: (§1)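 Negative Z-scores can be read as non-binding. The Z-score is calculated within each array and then averaged across arrays of one protein sequence at different concentrations or buffers and across linkers. Arrays, 3228 in all, were curated from the Consortium for Functional Glycomics database and kept only where the protein sequence was available.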

Gal(b1-3)GlcNAc6S = target: Gal(b1-3)GlcNAc6S
How it was run: as §1

[2] = target: Gal(b1-3)[Fuc(a1-4)]GlcNAc
How it was run: as §1

[3] = target: Gal(b1-3)[Fuc(a1-4)]GlcNAc(b1-2)Man
How it was run: as §1

[4] = target: Gal(b1-3)[Fuc(a1-4)]GlcNAc(b1-2)Man(a1-3)[Gal(b1-3)[Fuc(a1-4)]GlcNAc(b1-2)Man(a1-6)]Man(b1-4)GlcNAc(b1-4)[Fuc(a1-6)]GlcNAc
How it was run: as §1

[5] = target: Gal(b1-3)[Fuc(a1-4)]GlcNAc(b1-3)Gal(b1-3)[Fuc(a1-4)]GlcNAc
How it was run: as §1

[6] = target: Gal(b1-3)[Fuc(a1-4)]GlcNAc(b1-3)Gal(b1-4)[Fuc(a1-3)]GlcNAc
How it was run: as §1

[7] = target: Gal(b1-3)[Fuc(a1-4)]GlcNAc(b1-6)GalNAc
How it was run: as §1

[8] = target: Gal(b1-3)[GlcNAc(b1-6)]GalNAc
How it was run: as §1

[9] = target: Gal(b1-3)[Neu5Ac(a2-6)]GalNAc
How it was run: as §1

[10] = target: Gal(b1-3)[Neu5Ac(a2-6)]GlcNAc(b1-4)Gal(b1-4)Glc
How it was run: as §1

[11] = target: Gal(b1-3)[Neu5Ac(b2-6)]GalNAc
How it was run: as §1

Gal(b1-4)Gal = target: Gal(b1-4)Gal
How it was run: as §1

[12] = target: Gal(b1-4)GalNAc(a1-3)[Fuc(a1-2)]Gal(b1-4)GlcNAc
How it was run: as §1

[13] = target: Gal(b1-4)GalNAc(b1-3)[Fuc(a1-2)]Gal(b1-4)GlcNAc
How it was run: as §1

Gal(b1-4)Glc = target: Gal(b1-4)Glc
How it was run: as §1

Gal(b1-4)Glc6S = target: Gal(b1-4)Glc6S
How it was run: as §1

Gal(b1-4)GlcNAc = target: Gal(b1-4)GlcNAc
How it was run: as §1

[14] = target: Gal(b1-4)GlcNAc(a1-6)Gal(b1-4)GlcNAc
How it was run: as §1

Gal(b1-4)GlcNAc(b1-2)Man = target: Gal(b1-4)GlcNAc(b1-2)Man
How it was run: as §1

[15] = target: Gal(b1-4)GlcNAc(b1-2)Man(a1-3)Man(b1-4)GlcNAc(b1-4)GlcNAc
How it was run: as §1

[16] = target: Gal(b1-4)GlcNAc(b1-2)Man(a1-3)[Gal(b1-4)GlcNAc(b1-2)Man(a1-6)]Man(b1-4)GlcNAc(b1-4)GlcNAc
How it was run: as §1

[17] = target: Gal(b1-4)GlcNAc(b1-2)Man(a1-3)[Gal(b1-4)GlcNAc(b1-2)Man(a1-6)]Man(b1-4)GlcNAc(b1-4)[Fuc(a1-6)]GlcNAc
How it was run: as §1

[18] = target: Gal(b1-4)GlcNAc(b1-2)Man(a1-3)[Gal(b1-4)GlcNAc(b1-2)Man(a1-6)][Gal(b1-4)GlcNAc(b1-4)]Man(b1-4)GlcNAc(b1-4)[Fuc(a1-6)]GlcNAc
How it was run: as §1

[19] = target: Gal(b1-4)GlcNAc(b1-2)Man(a1-3)[Gal(b1-4)GlcNAc(b1-2)Man(a1-6)][GlcNAc(b1-4)]Man(b1-4)GlcNAc(b1-4)[Fuc(a1-6)]GlcNAc
How it was run: as §1

[20] = target: Gal(b1-4)GlcNAc(b1-2)Man(a1-3)[GlcNAc(b1-2)Man(a1-6)]Man(b1-4)GlcNAc(b1-4)GlcNAc
How it was run: as §1

[21] = target: Gal(b1-4)GlcNAc(b1-2)Man(a1-3)[GlcNAc(b1-4)][Gal(b1-4)GlcNAc(b1-2)Man(a1-6)]Man(b1-4)GlcNAc(b1-4)GlcNAc
How it was run: as §1

[22] = target: Gal(b1-4)GlcNAc(b1-2)Man(a1-3)[Man(a1-6)]Man(b1-4)GlcNAc(b1-4)GlcNAc
How it was run: as §1

[23] = target: Gal(b1-4)GlcNAc(b1-2)Man(a1-6)Man(b1-4)GlcNAc(b1-4)GlcNAc
How it was run: as §1

[24] = target: Gal(b1-4)GlcNAc(b1-2)Man(a1-6)[GlcNAc(b1-2)Man(a1-3)]Man(b1-4)GlcNAc(b1-4)GlcNAc
How it was run: as §1

[25] = target: Gal(b1-4)GlcNAc(b1-2)Man(a1-6)[Man(a1-3)]Man(b1-4)GlcNAc(b1-4)GlcNAc
How it was run: as §1

[26] = target: Gal(b1-4)GlcNAc(b1-2)[Gal(b1-4)GlcNAc(b1-4)]Man(a1-3)[Gal(b1-4)GlcNAc(b1-2)Man(a1-6)]Man(b1-4)GlcNAc(b1-4)GlcNAc
How it was run: as §1

[27] = target: Gal(b1-4)GlcNAc(b1-2)[Gal(b1-4)GlcNAc(b1-4)]Man(a1-3)[Gal(b1-4)GlcNAc(b1-2)[Gal(b1-4)GlcNAc(b1-6)]Man(a1-6)]Man(b1-4)GlcNAc(b1-4)GlcNAc
How it was run: as §1

[28] = target: Gal(b1-4)GlcNAc(b1-2)[Gal(b1-4)GlcNAc(b1-4)]Man(a1-3)[GlcNAc(b1-4)][Gal(b1-4)GlcNAc(b1-2)Man(a1-6)]Man(b1-4)GlcNAc(b1-4)GlcNAc
How it was run: as §1

[29] = target: Gal(b1-4)GlcNAc(b1-2)[Gal(b1-4)GlcNAc(b1-4)]Man(a1-3)[GlcNAc(b1-4)][Gal(b1-4)GlcNAc(b1-2)[Gal(b1-4)GlcNAc(b1-6)]Man(a1-6)]Man(b1-4)GlcNAc(b1-4)GlcNAc
How it was run: as §1

[30] = target: Gal(b1-4)GlcNAc(b1-2)[Gal(b1-4)GlcNAc(b1-6)]Man(a1-6)[Gal(b1-4)GlcNAc(b1-2)Man(a1-3)]Man(b1-4)GlcNAc(b1-4)GlcNAc
How it was run: as §1

[31] = target: Gal(b1-4)GlcNAc(b1-2)[Gal(b1-4)GlcNAc(b1-6)]Man(a1-6)[Gal(b1-4)GlcNAc(b1-2)Man(a1-3)]Man(b1-4)GlcNAc(b1-4)[Fuc(a1-6)]GlcNAc
How it was run: as §1

[32] = target: Gal(b1-4)GlcNAc(b1-2)[Gal(b1-4)GlcNAc(b1-6)]Man(a1-6)[GlcNAc(b1-4)][Gal(b1-4)GlcNAc(b1-2)Man(a1-3)]Man(b1-4)GlcNAc(b1-4)GlcNAc
How it was run: as §1

[33] = target: Gal(b1-4)GlcNAc(b1-2)[Gal(b1-4)GlcNAc(b1-6)]Man(a1-6)[GlcNAc(b1-4)][Gal(b1-4)GlcNAc(b1-2)[Gal(b1-4)GlcNAc(b1-4)]Man(a1-3)]Man(b1-4)GlcNAc(b1-4)[Fuc(a1-6)]GlcNAc
How it was run: as §1

[34] = target: Gal(b1-4)GlcNAc(b1-3)Gal(b1-3)GalNAc
How it was run: as §1

[35] = target: Gal(b1-4)GlcNAc(b1-3)Gal(b1-3)GlcNAc
How it was run: as §1

[36] = target: Gal(b1-4)GlcNAc(b1-3)Gal(b1-4)Glc
How it was run: as §1

[37] = target: Gal(b1-4)GlcNAc(b1-3)Gal(b1-4)GlcNAc
How it was run: as §1

[38] = target: Gal(b1-4)GlcNAc(b1-3)Gal(b1-4)GlcNAc(b1-2)Man(a1-3)[Gal(b1-4)GlcNAc(b1-3)Gal(b1-4)GlcNAc(b1-2)Man(a1-6)]Man(b1-4)GlcNAc(b1-4)GlcNAc
How it was run: as §1

[39] = target: Gal(b1-4)GlcNAc(b1-3)Gal(b1-4)GlcNAc(b1-2)Man(a1-3)[Gal(b1-4)GlcNAc(b1-3)Gal(b1-4)GlcNAc(b1-2)Man(a1-6)]Man(b1-4)GlcNAc(b1-4)[Fuc(a1-6)]GlcNAc
How it was run: as §1

B1: LecB PA7 (Pseudomonas aeruginosa) (protein)
chain: MATQGVFTLPANTRFGVTAFANSSATQTVKVLVNNETAATFTGQSTNNAVIGSQVLNSGGGGKVQIQVSVNGRSSDLVSAQVILANELNVALVGSEDSTDNDYNDAVVVINWPLG
glycan array binding signal (z-score) [1]: -0.412 | glycan array binding signal (z-score) (Gal(b1-3)GlcNAc6S): -0.512 | glycan array binding signal (z-score) [2]: 2.51 | glycan array binding signal (z-score) [3]: 0.08 | glycan array binding signal (z-score) [4]: 0.033 | glycan array binding signal (z-score) [5]: 3.31 | glycan array binding signal (z-score) [6]: 3.44 | glycan array binding signal (z-score) [7]: 0.473 | glycan array binding signal (z-score) [8]: -0.509 | glycan array binding signal (z-score) [9]: -0.511 | glycan array binding signal (z-score) [10]: -0.504 | glycan array binding signal (z-score) [11]: -0.515 | glycan array binding signal (z-score) (Gal(b1-4)Gal): -0.495 | glycan array binding signal (z-score) [12]: -0.46 | glycan array binding signal (z-score) [13]: -0.478 | glycan array binding signal (z-score) (Gal(b1-4)Glc): -0.502 | glycan array binding signal (z-score) (Gal(b1-4)Glc6S): -0.474 | glycan array binding signal (z-score) (Gal(b1-4)GlcNAc): -0.512 | glycan array binding signal (z-score) [14]: -0.515 | glycan array binding signal (z-score) (Gal(b1-4)GlcNAc(b1-2)Man): -0.495 | glycan array binding signal (z-score) [15]: -0.499 | glycan array binding signal (z-score) [16]: -0.502 | glycan array binding signal (z-score) [17]: -0.125 | glycan array binding signal (z-score) [18]: 0.387 | glycan array binding signal (z-score) [19]: 0.17 | glycan array binding signal (z-score) [20]: -0.437 | glycan array binding signal (z-score) [21]: -0.505 | glycan array binding signal (z-score) [22]: -0.34 | glycan array binding signal (z-score) [23]: -0.486 | glycan array binding signal (z-score) [24]: -0.49 | glycan array binding signal (z-score) [25]: 0.916 | glycan array binding signal (z-score) [26]: -0.279 | glycan array binding signal (z-score) [27]: -0.248 | glycan array binding signal (z-score) [28]: -0.514 | glycan array binding signal (z-score) [29]: -0.512 | glycan array binding signal (z-score) [30]: -0.417 | glycan array binding signal (z-score) [31]: 0.553 | glycan array binding signal (z-score) [32]: -0.491 | glycan array binding signal (z-score) [33]: -0.064 | glycan array binding signal (z-score) [34]: -0.502 | glycan array binding signal (z-score) [35]: -0.255 | glycan array binding signal (z-score) [36]: -0.468 | glycan array binding signal (z-score) [37]: -0.503 | glycan array binding signal (z-score) [38]: -0.495 | glycan array binding signal (z-score) [39]: 0.388
